Assay results published in the RNAGym collection of RNA variant scans (doi:10.1073/pnas.2313332121).
Variants at the background level are over-represented here.

B1: TPR 5TU (parent)
chain: GGAUCUUCUCGAUCUAACAAAAAAGACAAAUCUGCCACAAAGCUUGAGAGCAUCUUCGGAUGCAGAGGCGGCAGCCUUCGGUGGCGCGAUAGCGCCAACGUUCUCAACUAUGACACGCAAAACGCGUGCUCCGUUGAAUGGAGUUUAUCAUG

Variants of: B1
Experiment: polymerase ribozyme fitness, log enrichment relative to wild type (log ratio); higher = more active; in vitro selection for triplet polymerase activity
Summary of the method: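 One round of in vitro selection, in triplicate, was applied to PCR-built, transcribed mutant libraries of each subunit of a heterodimeric triplet polymerase ribozyme. The steps were annealing with a biotinylated primer, partner subunit and triplets, incubation frozen at −7 °C, gel excision of extended constructs, streptavidin-bead capture and RT-PCR. Fitness is the logarithm, base 2, of genotype enrichment over wild-type enrichment from inverse-variance-weighted replicate averages of Illumina-sequenced inputs and outputs, keeping genotypes with ≥10 input reads and ≥1 read per output.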

Variant | polymerase ribozyme fitness (log ratio)
A12G A19U U45A U53A G88U | ≤ -4.2
U13G A17U A23U C43U A49G G86A A98U G124U U134C | ≤ -4.2
G11U G46A C85U | -2.44
U13G A19U A28U U61A C76U A91G C132G | ≤ -4.2
U13C A52G A64G G68A | ≤ -4.2
A12U A20G C76A A97U C103A | ≤ -4.2
A12G A60G C93U | -0.294
G11U C27U C32U C36U G48U C54G A91U G100U | ≤ -4.2
A12U U53A U56A A66C A113C | ≤ -4.2
G11U U15A G58U G59U G68U U77G C85G A113C A142U | ≤ -4.2
A12G U45G A49U A60G U61G A107U U127G | ≤ -4.2
U13A G59A G80C | ≤ -4.2
A12G C18G A29G U44A C85U A121G | ≤ -4.2
A12G A20G C76G G81A G84U C118A | ≤ -4.2
A12G G50U C95G C99A C118A | ≤ -4.2
U13A A21G G50A C51U U61G U82G U90A G92A A106C | ≤ -4.2
A12C U13C C14G A16C C93A U109A G136A A150U | ≤ -4.2
A12U U55A G59U A60G G94A | -0.00322
A12G A22G A52C G74U G81C U82G C95G | ≤ -4.2
A12G G50C U61G G88U C96U U134C | ≤ -4.2
U13A C18G G50C C72G A91C G92A G140A | ≤ -4.2

Variant | polymerase ribozyme fitness (log ratio)
A12U C51U | -2.53
A12C C27U G34U C63U C93A | -4.1
G11U U13A U53A G92C C99G A137G | ≤ -4.2
A12C C75G G86U G141A U146G U151G | ≤ -4.2
A12G A30G | -2.97
A12U A16C C57G G81A U104G A115G | ≤ -4.2
A12U C87G A89G A113G C131U | ≤ -4.2
G11U U53A G71A C95U A138U | ≤ -4.2
A12U A52G A73U C93G A138G A142C | ≤ -4.2
U13C A20C U55A A73U C85G G126U | ≤ -4.2
A12U U56A A115G | -2.11
A12G C36U G94U A107C | ≤ -4.2
U13C U15G G68A C79G G136A G141A U144A | ≤ -4.2
A12G C35G C63U C85A | ≤ -4.2
U13C C125A G136C U145C U146C | -3.59
U13A G34A C43U A52C C57U G59U U77G C114U | ≤ -4.2
A12U C14A A28G C79A U111G G133A G136U G140U | ≤ -4.2
A12U A28U U102A U139G U148G | -4.1
A12U A37C U56A C76G A98G C114U U151G | ≤ -4.2
A12C A21G C51U G83U | -2.15
U13A A20U G48A U56A G88U C96A A122C | ≤ -4.2

Variant | polymerase ribozyme fitness (log ratio)
A12U G92A A98G C125G G128U | ≤ -4.2
A12U G50U C72U G126A | -1.33
A12U C35G A52G C54G C105G C125U G140U A142U A147G | ≤ -4.2
A12U A30G A39C G62C C79A C85G | ≤ -4.2
A12G A29U A49C A110U | ≤ -4.2
A12U G48C A66U G71A C87U | ≤ -4.2
A12C A37U A52C U61A A91G | ≤ -4.2
A12U A22C C57A G80C C85U G117A U130G | ≤ -4.2
U13A C51U U82A A91U G100A | ≤ -4.2
G11U C14G A41U G71A G88U U101C C116A G143C | ≤ -4.2
U13C C36A C93U A107U G112U G140U | ≤ -4.2
A12U A28U U44A A52U C57A C69G | ≤ -4.2
G11U C38A G83U U135C C149G | ≤ -4.2
A12C U53C C57A G83C G84U G100U A120U | ≤ -4.2
U13A U53A G71A A107G U146G | ≤ -4.2
G11U G74U G81U G88C A89G C95U G128U U148A | ≤ -4.2
G11U C14U C72U G143A | ≤ -4.2
A12G G48C U56A G70A G83U | ≤ -4.2
A12C A29U G42U C87U A91U U145C | ≤ -4.2
A12U G50A G80C C85U C95A | ≤ -4.2
A12C C93U | -2.17

Variant | polymerase ribozyme fitness (log ratio)
A12G C38G C85A U151C G152U | ≤ -4.2
U13A C18U U33A A73C C93A U109G | ≤ -4.2
A12G A26G C57U C87A A91U A122C C125G | ≤ -4.2
A12C A20C A29U A49G G50C C69U C114A | ≤ -4.2
A12C C99A A119G U145C | -1.83
A12U A24C C27U G58C G84A A98G | ≤ -4.2
A12U A17U A22C G34C U55A U56A C57U A64C C95U | ≤ -4.2
A12C G50A C54A G65A A107C A137G | ≤ -4.2
A12G A23U C35U C76A C93U A97U C116A | -3.12
A12U G141C | -0.54
U13A C27G A40U G70C C85U G112C G133A | ≤ -4.2
U13C A20C G50C | -3.15
A12C U45A G83C U139C A150C G152U | ≤ -4.2
A12U G46C C69U | -3.08
U13A C14U C43A G65C G83C U90C | ≤ -4.2
A12U A19U C35A U61G C69U U78G G80C A97C G126U | ≤ -4.2
A12G C85U C118G C125A | -0.473
G11U C93U A119C C149U | -3.06
A12C U13G C18G A21G U101A A110U A120U G136C G140U G152U | ≤ -4.2
A12C C14U U55A A98G C103G G133A | ≤ -4.2
A12G C57G G59A C96U U127G | -3.86
